Measured values published in PubChem BioAssay AID1345082 (National Center for Advancing Translational Sciences (NCATS), 2018).
The campaign covered roughly 94,000 compounds. About 4,000 (4.3%) were called active. The inconclusive results got no clear call from the source; some entries with a clear call stand among them for comparison. Calls follow the shape of the dose curve; as a rule, active = well fitted inhibition curve with a large enough effect; inconclusive = small, poorly fitted or top-dose-only effect; inactive = no such curve, though single readings can be large or run the other way. A potency beside an inconclusive call is a rough fit, not a confirmed value.

assay: Cytotoxic Profiling in NIH 3T3 Cell Line of Diverse Libraries Using Quantitative High-Throughput Screening; settings: NIH 3T3 viability, CellTiter-Glo ATP luminescence, 48-72 h; series mostly up to 96.7 µM; also: nearly all actives have a fitted effect of over 55% in size
How it was run: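 Cells were seeded at 400 per well, treated with pin-transferred compound, and kept 48 or 72 hr at 37 °C before CellTiter-Glo addition and luminescence imaging of cellular ATP.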
Potency is read from the fitted curve at half-maximal effect; tags tell the direction and shape of the fitted curve.

Structure (SMILES)	Potency
CCc1nc2cc(N3CCCC(C(=O)NCc4ccccn4)C3)cnc2nc1CC (configuration not stated)	inconclusive: 56.2 µM [inhibitor, partial curve, poor fit]
O=C(COc1ccccc1)N1CCC(Cc2nc(-c3ccncc3)n[nH]2)CC1	inactive
O=C(CCc1conc1-c1ccccc1F)NCc1cccc(C(F)(F)F)c1	inconclusive: 50.1 µM [inhibitor, partial curve, poor fit]
O=C(NCCc1ccccc1)c1cnc2n1CCN(CCc1ccccc1)CC2	inconclusive: 100 µM [inhibitor, partial curve]
Cc1ccc(-c2cnc([C@@H]3COCCN3Cc3ccccc3F)[nH]2)cc1	inconclusive: 112 µM [inhibitor, single point]
CN(CC(=O)N1CCCn2nc(-c3cccc(C(F)(F)F)c3)cc2C1)S(=O)(=O)c1ccc2c(c1)oc(=O)n2C	inconclusive: 39.8 µM [inhibitor, partial curve]
Cc1nnc(-c2cc(-c3ccsc3)ccn2)n1Cc1ccncc1	inconclusive: 112 µM [inhibitor, single point]
COc1ccc(NC(=O)C2=NO[C@@H]3CN(Cc4ccc(F)cc4)C[C@H]23)cn1	inconclusive: 100 µM [inhibitor, partial curve]
COc1ccc(Cl)cc1NC(=O)CC1CCCN(c2cnn(C)c(=O)c2)C1 (configuration not stated)	inconclusive: 50.1 µM [inhibitor, partial curve, poor fit]
COC(=O)c1ccc(CN2C(=O)[C@@H]3C[C@@H](O)CN3C3(CN(Cc4cccc(OC)c4)C3)C2=O)cc1	inactive
O=C(NC1CCN(Cc2ccc(-c3ccsc3)cc2)C1)C1CC1 (configuration not stated)	inconclusive: 89.1 µM [inhibitor, partial curve, poor fit]
O=C(CCc1ccccc1)N1CCC2(CC1)NC(=O)N(c1cccc(F)c1)N2	inconclusive: 39.8 µM [inhibitor, partial curve]
COc1ccccc1CCC(=O)N1C[C@@H](C(N)=O)[C@H](c2nc(C)no2)C1	inconclusive: 79.4 µM [inhibitor, partial curve, poor fit]
COC(=O)CNC(=O)C1CCCCN1Cc1ccc(-c2cc(F)ccc2OC)cc1 (configuration not stated)	inconclusive: 50.1 µM [inhibitor, partial curve, poor fit]
Cc1ccc(NC(=O)Cn2cccc2-c2nc(-c3ccccc3)no2)c(C)c1	inactive
O=C(NCC1CC1)c1csc(N2CCN(c3ccccc3F)CC2)n1	active: 12.6 µM
COc1ccc(C(=O)NCCNC(=O)c2cccc(-c3cc(F)ccc3OC)c2)cc1	inconclusive: 44.7 µM [inhibitor, partial curve, poor fit]
COc1ncccc1-c1nccc2c(=O)cc(N(C)c3ccccc3)oc12	active: 35.5 µM
COC(=O)c1cccc(NC(=S)N[C@H]2CO[C@H]3[C@@H]2OC[C@@H]3n2nnnc2-c2cccc(OC)c2)c1	inconclusive: 50.1 µM [inhibitor, partial curve, poor fit]

Structure (SMILES)	Potency
Cc1ccc(CN2C(=O)NC3(CCCN(C(=O)c4cc5ccccc5[nH]4)C3)C2=O)cc1 (configuration not stated)	inconclusive: 50.1 µM [inhibitor, partial curve, poor fit]
CC(=O)N1CCCC2(C1)CN(C)c1ccc(C(=O)NC3CC3)cc12 (configuration not stated)	inconclusive: 56.2 µM [inhibitor, partial curve, poor fit]
O=C(CN1C(=O)CNC1=O)NCCc1noc(-c2ccccc2)n1	inactive
COc1ccc(-n2c(=O)c(C(=O)N3CCC(C#N)CC3)nc3cccnc32)cc1	inactive
CCc1nc2c(c(-c3ccc(O)cc3)n1)CCN(C(=O)c1cccc(Cl)c1)CC2	inconclusive: 50.1 µM [inhibitor, partial curve, poor fit]
COc1ccc(S(=O)(=O)N2CC(=O)N(CC3CC3)C3(CCCCC3)C2)cc1	active: 35.5 µM
CNC(=O)CCn1ncc2cc(OC3CCc4cccc(-c5ccc(F)cc5)c43)ccc21 (configuration not stated)	inconclusive: 56.2 µM [inhibitor, partial curve, poor fit]
Cc1ccc(CS(=O)(=O)N2CCC(C3CCNC3)CC2)cc1C (configuration not stated)	inconclusive: 44.7 µM [inhibitor, partial curve, poor fit]
CCNc1cc(N2CCC(CCC(=O)N3CCc4ccccc4C3)CC2)ncn1	inconclusive: 31.6 µM [inhibitor, partial curve, poor fit]
Cc1nn(-c2ccc(C(C)(C)C)cc2)c(C)c1[C@@H]1C=C[C@@H](NC(=O)COCC(=O)O)C1	inconclusive: 100 µM [inhibitor, partial curve]
Cc1ccc(C)c(C(=O)NC2CCCN(c3cc(-c4ccccc4)[nH]n3)C2)c1 (configuration not stated)	inconclusive: 79.4 µM [inhibitor, partial curve, poor fit]
CCOC(=O)[C@H]1[C@@H](O)C(=O)NC12CCN(C(=O)c1csc(-c3cccs3)n1)CC2	inconclusive: 50.1 µM [inhibitor, partial curve, poor fit]
CC(C)c1cccc(NC(=O)c2ccc3c(c2)N(C)C2CCCCN2C3=O)c1 (configuration not stated)	inconclusive: 31.6 µM [inhibitor, full curve]
C[S+](=O)([O-])c1ccc(-c2nnc3ccc(C(=O)NCCc4ccccc4F)cn23)cc1	inconclusive: 39.8 µM [inhibitor, partial curve, poor fit]
CC(C)c1ccc(CN2CCC3(CC2)OCCN(c2ccc(F)cc2)C3=O)cc1	inconclusive: 56.2 µM [inhibitor, partial curve, poor fit]
Cc1ccc(-c2cccc(CN3CCCC(NC(=O)c4c(C)noc4C)C3)c2)cc1Cl (configuration not stated)	inconclusive: 31.6 µM [inhibitor, full curve, poor fit]
CNC(=O)c1ccc(CNc2cc(C3CC(O)C3)nc(N)n2)o1 (configuration not stated)	inactive
CCOc1cccc2c1OC[C@@H]1CN(CCC#N)C(=O)CCN(C(=O)COc3ccccc3)[C@H]21	inconclusive: 56.2 µM [inhibitor, partial curve, poor fit]
